How the values were obtained:
[1] = biological target: T1, ParA2vc (Vibrio cholerae, UniProt Q9KKJ2); assay: X-ray crystallography, […] Å; assay type: binding; conditions: co-crystallized with 5 mM ADP and 5 mM MgCl2; Mg in active site; 4 °C; two dimers per asymmetric unit
T1 construct: gene VC_A1115

[2] = biological target: T1, ParA2vc; assay: cryo-EM helical reconstruction, […] Å; assay type: binding; conditions: DNA-bound filament (sonicated salmon sperm DNA); about 4 mM ATPγS and MgCl2; 30 °C; active site with Mg

Row | SMILES | X-ray crystallography, 3.2 Å [1] | cryo-EM helical reconstruction, 4.5 Å [2]
1 | Nc1ncnc2c1ncn2[C@@H]1O[C@H](COP(=O)(O)OP(=O)(O)O)[C@@H](O)[C@H]1O [ADP] | Ligand density was observed in the active site of all four molecules | –
2 | Nc1ncnc2c1ncn2[C@@H]1O[C@H](COP(=O)(O)OP(=O)(O)OP(O)(O)=S)[C@@H](O)[C@H]1O [ATPγS] | – | Density for the ATPγS and Mg molecules is also clearly delineated in the active site

Reference: PMC8397727, “The structure of the bacterial DNA segregation ATPase filament reveals the conformational plasticity of ParA upon DNA binding” (Nature Communications, 2021)
